In the BET-seq Pho4 binding data (Le et al. 2018):
The other results are listed elsewhere or left out. The energies were worked out here from pooled read counts, against the library average; single values are noisy.

Molecular target: T1, Pho4 (S. cerevisiae) (UniProt P07270)
T1 sequence: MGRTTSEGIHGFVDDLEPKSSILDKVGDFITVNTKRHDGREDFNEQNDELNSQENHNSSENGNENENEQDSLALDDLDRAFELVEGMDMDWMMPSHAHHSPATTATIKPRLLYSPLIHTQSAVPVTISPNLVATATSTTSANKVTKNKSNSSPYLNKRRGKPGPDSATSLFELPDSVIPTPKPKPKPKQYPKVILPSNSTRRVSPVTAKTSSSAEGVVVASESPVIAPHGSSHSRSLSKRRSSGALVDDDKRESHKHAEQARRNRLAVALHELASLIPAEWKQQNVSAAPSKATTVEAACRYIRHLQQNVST
Assay: relative binding free energy (BET-seq); higher = weaker binding
Details: reference: library average

Sequence	relative binding free energy
TACGGCACGTGAGGAT	0.24 kcal/mol
TGTACCACGTGAATTT	0.28 kcal/mol
TGCGACACGTGTGGTG	-0.07 kcal/mol
TTAGGCACGTGTTAGC	-0.16 kcal/mol
GTATGCACGTGAGTTG	0.23 kcal/mol
CTAGGCACGTGAGGTG	0.17 kcal/mol
TTGGTCACGTGTTTTC	0.13 kcal/mol
GTTGGCACGTGGGTAA	-0.15 kcal/mol
AGTGTCACGTGCACTG	0.11 kcal/mol
TAATACACGTGTGTTT	0.14 kcal/mol
TTTTGCACGTGTACAA	0.09 kcal/mol
TGGACCACGTGCTGGT	0.01 kcal/mol
TGATGCACGTGTGGAA	-0.02 kcal/mol
AGTTGCACGTGCGAGT	0 kcal/mol
CGTAGCACGTGAGTTG	0.32 kcal/mol
TTTAACACGTGACGTG	0.14 kcal/mol
TGCGCCACGTGAGGGC	0.18 kcal/mol
TAGTTCACGTGGTTCT	0.3 kcal/mol
TATGACACGTGAAGGA	0.24 kcal/mol
GTTGCCACGTGGAAGT	0.04 kcal/mol
AATGTCACGTGCGGAT	0.04 kcal/mol
TAACACACGTGTTGGG	-0.02 kcal/mol
GGTGTCACGTGGTGCT	0.16 kcal/mol
AATCTCACGTGTTGTG	0.08 kcal/mol
TTTATCACGTGCCGTT	-0.05 kcal/mol
AGTAGCACGTGTGTGG	-0.01 kcal/mol

Sequence	relative binding free energy
GTTTGCACGTGAGAGG	0.19 kcal/mol
CTGTTCACGTGGTATA	0.18 kcal/mol
GTATCCACGTGGGCTT	0.03 kcal/mol
TAGGTCACGTGGATTA	0.1 kcal/mol
GGGCTCACGTGTTGTT	0.23 kcal/mol
GTTGTCACGTGATTCT	0.22 kcal/mol
TTCTACACGTGTAAGG	0.35 kcal/mol
TGTTGCACGTGTTCCG	-0.03 kcal/mol
ATTGACACGTGTGTAG	0.02 kcal/mol
TCGATCACGTGGTGAT	0.08 kcal/mol
TTTCGCACGTGAGCTT	0.09 kcal/mol
TATATCACGTGAGAAG	0.32 kcal/mol
GTGAGCACGTGTAGAG	-0.09 kcal/mol
GAAGGCACGTGGGTCT	-0.13 kcal/mol
GGGGGCACGTGAAATT	0.18 kcal/mol
TAAGCCACGTGGTGGC	-0.07 kcal/mol
GGGTTCACGTGCGACT	0.45 kcal/mol
TTCTGCACGTGTTAGA	0.14 kcal/mol
GGATGCACGTGTTACG	-0.03 kcal/mol
ATATGCACGTGCGTAG	-0.16 kcal/mol
AGTGACACGTGGGCAG	-0.12 kcal/mol
CATGTCACGTGTGATG	0.14 kcal/mol
GGTTGCACGTGTATAA	0.04 kcal/mol
GCTTACACGTGAAGGT	0.48 kcal/mol
AGAGGCACGTGGGTCG	-0.27 kcal/mol
ATAGACACGTGTTTTG	-0.01 kcal/mol

Sequence	relative binding free energy
ATTAGCACGTGTGGAA	-0.13 kcal/mol
ATGGGCACGTGAGGAA	0.07 kcal/mol
TTTGGCACGTGAAGGA	0.18 kcal/mol
AGGAACACGTGAAGGT	0.19 kcal/mol
GTAGGCACGTGTACTG	0.05 kcal/mol
TGGGGCACGTGTTGTA	-0.05 kcal/mol
CGTTTCACGTGAAGTA	0.46 kcal/mol
GAGGGCACGTGCTGCG	-0.11 kcal/mol
GTCGGCACGTGAAGGG	0.23 kcal/mol
GTAGACACGTGGCGAG	0.04 kcal/mol
GTGCGCACGTGGTTCT	-0.11 kcal/mol
TATTTCACGTGATAGA	0.26 kcal/mol
TAGATCACGTGGTCTT	0.19 kcal/mol
GAGTGCACGTGCGTAT	-0.08 kcal/mol
TAGGGCACGTGTGACA	-0.05 kcal/mol
TGGAGCACGTGTAGGA	-0.08 kcal/mol
TTGTCCACGTGTGGAT	0.1 kcal/mol
CGGTGCACGTGGAGTG	0.02 kcal/mol
TATGGCACGTGCTTGT	-0.11 kcal/mol
TTGTGCACGTGTGTAA	0.1 kcal/mol
TTGCTCACGTGTCGTG	0.09 kcal/mol
GTCTGCACGTGTGTGG	0.08 kcal/mol
CGAGTCACGTGGTGCG	0.16 kcal/mol
ACAGGCACGTGAAGGT	0.05 kcal/mol
GTTTTCACGTGTAGGA	0.21 kcal/mol
AAGGGCACGTGGGTCA	-0.27 kcal/mol

Sequence	relative binding free energy
AGGGGCACGTGCAAGC	-0.16 kcal/mol
CGTCGCACGTGGGGTG	-0.21 kcal/mol
CAGTGCACGTGTAATT	0.03 kcal/mol
TTTGGCACGTGCAATA	-0.06 kcal/mol
GTTTTCACGTGTTGCC	0.38 kcal/mol
GTGTTCACGTGGATGG	0.34 kcal/mol
GAGTTCACGTGATGAA	0.51 kcal/mol
AGTTTCACGTGTGTTT	0.26 kcal/mol
TGTTTCACGTGTAAGG	0.4 kcal/mol
TGGATCACGTGTATAA	0.21 kcal/mol
AATGACACGTGTTAAT	0.1 kcal/mol
TAGATCACGTGCGTGT	0.01 kcal/mol
GAAGGCACGTGGTCGG	-0.14 kcal/mol
AAGTGCACGTGCGGTA	-0.08 kcal/mol
GGGAGCACGTGCGAGG	-0.18 kcal/mol
TTTGGCACGTGCTGAT	-0.05 kcal/mol
TTGTTCACGTGATACT	0.32 kcal/mol
CCGGGCACGTGCGGTG	-0.19 kcal/mol
GATTGCACGTGGTATA	-0.01 kcal/mol
ATCTTCACGTGGTCTG	0.22 kcal/mol
AGATTCACGTGTGGTG	0.34 kcal/mol
GGATGCACGTGTGAGG	0.02 kcal/mol
TTTGTCACGTGAGCGA	0.17 kcal/mol
GTAGTCACGTGAGTAA	0.23 kcal/mol
TCTGGCACGTGCGAGG	-0.08 kcal/mol
TGTAGCACGTGATTGC	-0.03 kcal/mol

Sequence	relative binding free energy
ATGGGCACGTGGAGTC	-0.04 kcal/mol
TGGTCCACGTGTGATT	-0.07 kcal/mol
GTGGGCACGTGCGATT	-0.02 kcal/mol
GCTAACACGTGGTAGG	0.04 kcal/mol
GTTTGCACGTGGCCTT	-0.12 kcal/mol
TTGTTCACGTGTAGAG	0.24 kcal/mol
GGATGCACGTGCGCGT	-0.04 kcal/mol
AGGGACACGTGAGAGT	0.23 kcal/mol
GAGGGCACGTGAGGCT	0.24 kcal/mol
GTGAGCACGTGGGGGT	-0.27 kcal/mol
ATTGTCACGTGAGGAA	0.33 kcal/mol
ATTAGCACGTGGTGGG	-0.17 kcal/mol
TCGTACACGTGAATGT	0.33 kcal/mol
GAGGGCACGTGAGACA	0.21 kcal/mol
TTGTCCACGTGTATTA	-0.02 kcal/mol
ATTATCACGTGGGTGT	-0.05 kcal/mol
TGTCACACGTGGGTAG	0.01 kcal/mol
AAGATCACGTGTAATG	0.21 kcal/mol
GTGTGCACGTGTGTAA	0 kcal/mol
ACAAGCACGTGTTGGG	-0.04 kcal/mol
CGTCACACGTGTGGGG	0.09 kcal/mol
ATTGACACGTGGGGAG	-0.12 kcal/mol
GTTTTCACGTGCGGTA	0.2 kcal/mol
CATCGCACGTGGGGTA	-0.15 kcal/mol
TTGTTCACGTGGCGTC	0.14 kcal/mol
CGTTTCACGTGCGTCG	0.26 kcal/mol

Sequence	relative binding free energy
AGGTTCACGTGTGCAT	0.23 kcal/mol
TTGTTCACGTGTCTTT	0.29 kcal/mol
ATTTTCACGTGTTCCT	0.22 kcal/mol
TCTTTCACGTGAGTGA	0.33 kcal/mol
AGAGGCACGTGGTTAA	-0.23 kcal/mol
CGGTTCACGTGGGCAT	0.09 kcal/mol
TAGGGCACGTGCTGTT	-0.1 kcal/mol
AAAATCACGTGTGCGT	0.21 kcal/mol
CAAGGCACGTGGTGGC	-0.11 kcal/mol
TTGGTCACGTGGTAGC	0.03 kcal/mol
ATTGCCACGTGTGAGG	-0.06 kcal/mol
TAAGTCACGTGGCGCG	0.07 kcal/mol
ATTATCACGTGCGGAT	0.36 kcal/mol
GACGGCACGTGTGGTA	-0.12 kcal/mol
AGTATCACGTGAATAT	0.28 kcal/mol
TTTTGCACGTGTAGCT	0 kcal/mol
TGTTGCACGTGGGATG	0 kcal/mol
TGATGCACGTGTCTGT	0.05 kcal/mol
TGATGCACGTGTCGGT	0.09 kcal/mol
TTAGGCACGTGCTTGG	-0.06 kcal/mol
GCCCGCACGTGGGGGG	-0.18 kcal/mol
AAAGACACGTGGTGGA	-0.1 kcal/mol
TATATCACGTGAAGGA	0.26 kcal/mol
AGAGTCACGTGGCTGT	0 kcal/mol
AATAGCACGTGGGGTA	-0.31 kcal/mol
GGAGTCACGTGGGGAA	0.14 kcal/mol

Sequence	relative binding free energy
GATTTCACGTGTTCTG	0.37 kcal/mol
TAGGCCACGTGTGTTA	-0.1 kcal/mol
AGCTACACGTGGCGTG	0.07 kcal/mol
TAGTCCACGTGTTTGG	0 kcal/mol
GCAGTCACGTGGCGGT	-0.03 kcal/mol
GCGGTCACGTGGGTCA	0.13 kcal/mol
AGAGGCACGTGATGTG	-0.02 kcal/mol
GAGGTCACGTGTAGGC	0.21 kcal/mol
ATGAGCACGTGATTAA	0.07 kcal/mol
GTAATCACGTGAGGGA	0.32 kcal/mol
CGTGTCACGTGGTTCT	0.08 kcal/mol
CATTTCACGTGGATTG	0.24 kcal/mol
AGGTTCACGTGCGAGG	0.24 kcal/mol
TGGTTCACGTGCTTAG	0.24 kcal/mol
GGAGTCACGTGATTGA	0.22 kcal/mol
TGAGGCACGTGTTGGT	-0.03 kcal/mol
GAGTACACGTGGGCGG	0.03 kcal/mol
GAGGCCACGTGGGTGT	-0.13 kcal/mol
GAGGGCACGTGGTGGT	-0.08 kcal/mol
CTTTCCACGTGGGTTT	0.08 kcal/mol
ACGGGCACGTGATAGT	0.04 kcal/mol
AAGGACACGTGGGTCG	-0.12 kcal/mol
AGTTTCACGTGGAGGG	0.3 kcal/mol
TACTTCACGTGGGCGT	0.14 kcal/mol
TAGGGCACGTGAAAAT	0.11 kcal/mol
TGAGTCACGTGCGTCG	0.02 kcal/mol

Sequence	relative binding free energy
CTTGACACGTGGTTTG	0.02 kcal/mol
TTTTGCACGTGGGCGC	-0.01 kcal/mol
TTTGACACGTGGGGCT	-0.16 kcal/mol
CGTTGCACGTGTTTGG	-0.05 kcal/mol
GTGATCACGTGGCGGT	0.11 kcal/mol
ACTGTCACGTGTTCTG	0.1 kcal/mol
AAGGGCACGTGCTGTG	-0.21 kcal/mol
AAGTACACGTGGGAAG	-0.05 kcal/mol
AAGAGCACGTGTAGGG	-0.08 kcal/mol
GAGCGCACGTGTGTAG	-0.06 kcal/mol
AGGCGCACGTGGAGAA	0.06 kcal/mol
TGATTCACGTGTATAA	0.08 kcal/mol
TATGGCACGTGGTAAT	-0.07 kcal/mol
TGTATCACGTGGGCAA	-0.07 kcal/mol
GAGCGCACGTGTTGTT	-0.1 kcal/mol
CGGTGCACGTGGATTT	0.06 kcal/mol
GGGGGCACGTGGTAGT	-0.06 kcal/mol
AACTACACGTGGGTTT	-0.01 kcal/mol
ATTAACACGTGAGGTT	0.3 kcal/mol
AAGGACACGTGTTTTG	-0.03 kcal/mol
GTGGGCACGTGTTAAC	0.04 kcal/mol
GGTTACACGTGCGGAG	0.21 kcal/mol
TATGGCACGTGTAGGA	-0.09 kcal/mol
TATTGCACGTGTCTGA	0.11 kcal/mol
CGTTACACGTGTTATG	0.15 kcal/mol
TGCTGCACGTGTTGAG	0.05 kcal/mol

Sequence	relative binding free energy
TTTAGCACGTGATTTT	0.1 kcal/mol
TCTCGCACGTGGGTAG	-0.14 kcal/mol
ATGACCACGTGGTGTG	-0.25 kcal/mol
AAATTCACGTGGGGGA	0.06 kcal/mol
GGGGACACGTGTCGGA	0.12 kcal/mol
CGACACACGTGGGGGG	-0.24 kcal/mol
TTGGACACGTGAGTTT	0.15 kcal/mol
GTTGGCACGTGCTATT	-0.09 kcal/mol
GAGGCCACGTGCTGGT	-0.03 kcal/mol
TGGCTCACGTGTCGGG	0.15 kcal/mol
GGAGGCACGTGAGGAT	0.13 kcal/mol
AATGTCACGTGAAATT	0.18 kcal/mol
TTGTACACGTGGGCTG	-0.07 kcal/mol
ATTATCACGTGTATAG	-0.04 kcal/mol
CTTCTCACGTGGGTTG	0.14 kcal/mol
TCCAGCACGTGTGTGG	0.03 kcal/mol
CGGGTCACGTGGCAGT	0.06 kcal/mol
AGTTACACGTGTGGGG	0.14 kcal/mol
AGGATCACGTGAGTCT	0.43 kcal/mol
GTTCGCACGTGAAGTT	0.4 kcal/mol
GGGGACACGTGTTCTT	0.11 kcal/mol
AAGGTCACGTGGACTT	0.21 kcal/mol
